The name of at least one read-out is uncertain.
System: VCR resistant murine leukemia (P388/VCR) cells
Experiment: In vivo overcoming of resistance in VCR resistant murine leukemia (P388/VCR) bearing mice, etoposide with compound 20 mg/kg
Set-up: species or system CDF1 female mice
Settings: VP-16 3 mg/kg + compound 20 mg/kg, i.v. once per day for 5 days; vs VP-16 alone
Description: In Vivo Test of Action Suppressing Proliferation of Cancer Cells by Combined Administration of Anti-cancer Drug Etoposide
Effect of Overcoming Resistance to an Anti-cancer Drug for VCR Resistant Murine Leukemia Cell Bearing Mice
1.2×10^5 VCR resistant murine leukemia (P388/VCR) cells were transplanted intravenously into groups of 5-6 CDF1 female mice, then the compound of the present invention (20 mg/kg) and Etoposide (VP-16) (3 mg/kg) were administered intravenously once per day for 5 days, after dissolving them in a physiological salt solution containing a small amount of hydrochloric acid. The observation was started from the next day. The number of survival days were found and the life prolonging rate (T/C) with respect to the controls was found. The effect in overcoming resistance to an anti-cancer drug (T/V) was found by the following formula.
Effect of overcoming resistance to the anti-cancer drug (T/V) %
=[(Rate of prolongation of life using VP-16 and the present compound (T/C))/(Rate of prolongation of life using VP-16 alone (T/C))]×100

CCOC(=O)C1=C(c2ccc(-n3c(C)nc4cnccc43)cc2)NC(C)=C(C(=O)OCC#Cc2cnc3ccccc3c2)C1CCc1ccccc1 (stereo not drawn) [Compound 18, 6-Methyl-2-[4-(2-methylimidazo[4,5-c]pyridin-1-yl)phenyl]-4-(2-phenylethyl)-1,4-dihydropyridin-3,5-dicarboxylate 3-ethylester 5-[3-(3-quinolyl)-2-propynyl]ester] and CCOC(=O)C1=C(c2ccc(-n3c(C)nc4cnccc43)cc2)NC(C)=C(C(=O)OCC#Cc2cnc3ccccc3c2)C1/C=C/c1ccccc1 (stereo not drawn) [Compound 19, 6-Methyl-2-[4-(2-methylimidazo[4,5-c]pyridin-1-yl)phenyl]-4-[(E)-2-(2-phenyl)ethenyl]-1,4-dihydropyridin-3,5-dicarboxylate 3-ethylester 5-[(3-quonolyl)-2-propynyl]ester] are the same in “Effect of overcoming resistance T/V” value: 145% for the first, 145% for the second.

First: CCOC(=O)C1=C(c2ccc(-n3c(C)nc4cnccc43)cc2)NC(C)=C(C(=O)OCC#Cc2cccnc2)C1CCc1ccccc1OC (stereo not drawn) [Compound 13, 4-[2-(2-methoxyphenyl)ethyl]-6-methyl-2-[4-(2-methylimidazo[4,5-c]pyridin-1-yl)phenyl]-1,4-dihydropyridin-3,5-dicarboxylate 3-ethylester 5-[3-(3-pyridyl)-2-propynyly]ester]
Second: CCOC(=O)C1=C(c2ccc(-n3c(C)nc4cnccc43)cc2)NC(C)=C(C(=O)OCC#Cc2cccnc2)C1CCc1ccccc1Cl (stereo not drawn) [Compound 11, 4-[2-(2-Chlorophenyl)ethyl]-6-methyl-2-[4-(2-methylimidazo[4,5-c]pyridin-1-yl)phenyl]-1,4-dihydropyridin-3 ,5-dicarboxylate 3-ethylester 5-[3-(3-pyridyl)-2-propynyl]ester]
The “Effect of overcoming resistance T/V” value of the first is lower: 143% for the first, 144% for the second.

First: CCOC(=O)C1=C(c2ccc(-n3c(C)nc4cnccc43)cc2)NC(C)=C(C(=O)OCC#Cc2cccnc2)C1C=C1c2ccccc2C2C(c3ccccc31)C2(F)F (stereo not drawn) [Compound 67, 4-(1,1-Difluoro-1,1a,6,10b-tetrahydrodibenzo[a,e]cyclopropa[c]cyclohepten-6-ylidenemethyl)-6-methyl-2-[4-(2-methylimidazo[4,5-c]pyridin-1-yl)phenyl]-1,4-dihydropyridin-3,5-dicarboxylate 3-ethylester 5-[3-(3-pyridyl)-2-propynyl]ester]
Second: CCOC(=O)C1=C(c2ccc(-n3c(C)nc4cnccc43)cc2)NC(C)=C(C(=O)OCC#Cc2cccnc2)C1CC1c2ccccc2C2C(c3ccccc31)C2(F)F (stereo not drawn) [Compound 66, 4-(1,1-Difluoro-1,1a,6, 10b-tetrahydrodibenzoa,[a,e]cyclopropa[c]cyclohepten-6-ylmethyl)-6-methyl-2-[4-(2-methylimidazo[4,5-c]pyridin-1-yl)phenyl]-1,4-dihydropyridin-3,5-dicarboxylate 3-ethylester 5-[3-(3-pyridyl)-2-propynyl]ester]
The “Effect of overcoming resistance T/V” value of the first is lower: 136% for the first, 138% for the second.

First: CCOC(=O)C1=C(c2ccc(-n3c(C)nc4cnccc43)cc2)NC(C)=C(C(=O)OCC#Cc2cccnc2)C1CCc1ccccc1 (stereo not drawn) [Compound 9, 6-Methyl-2-[4-(2-methylimidazo[4,5-c]pyridin-1-yl)phenyl]-4-(2-phenylethyl)-1,4-dihydropyridin-3,5-dicarboxylate 3-ethylester 5-[3-(3-pyridyl)-2-propynyl]ester]
Second: CCOC(=O)C1=C(c2ccc(-n3c(C)nc4cnccc43)cc2)NC(C)=C(C(=O)OCCC#Cc2cccnc2)C1CCc1ccccc1 (stereo not drawn) [Compound 47, 6-Methyl-2-[4-(2-methylimidazo[4,5-c]pyridin-1-yl)phenyl]-4-(2-phenylethyl)-1,4-dihydropyridin-3,5-dicarboxylate 3-ethylester 5-[4-(3-pyridyl)-3-butynyl]ester]
The “Effect of overcoming resistance T/V” value of the first is higher: 158% for the first, 145% for the second.

Compared with CCOC(=O)C1=C(c2ccc(-n3c(C)nc4cnccc43)cc2)NC(C)=C(C(=O)OCC#Cc2cccnc2)C1CC(c1ccccc1)c1ccccc1 (stereo not drawn) [Compound 60], CCOC(=O)C1=C(c2ccc(-n3c(C)nc4cnccc43)cc2)NC(C)=C(C(=O)OCC#Cc2cccnc2)C1Cc1ccccc1 (stereo not drawn) [Compound 6, 4-Benzyl-6-methyl-2-[4-(2-methylimidazo[4,5-c]pyridin-1-yl)phenyl]-1,4-dihydropyridin-3,5-dicarboxylate 3-ethylester 5-[3-(3-pyridyl)-2-propynyl]ester] is higher in “Effect of overcoming resistance T/V” value: 155% for the first, 168% for the second.

Going from CCOC(=O)C1=C(c2ccc(-n3c(C)nc4cnccc43)cc2)NC(C)=C(C(=O)OCC#Cc2cccnc2)C1/C=C/c1ccccc1 (stereo not drawn) [Compound 10, 6-Methyl-2-[4-(2-methylimidazo[4,5-c]pyridin-1-yl)phenyl]-4-[(E)-2-phenylethenyl]-1,4-dihydropyridin-3,5-dicarboxylate 3-ethylester 5-[3-(3-pyridyl)-2-propynyl]ester] to CCOC(=O)C1=C(c2ccc(-n3c(C)nc4cnccc43)cc2)NC(C)=C(C(=O)OCC#Cc2cccnc2)C1/C=C/c1ccccc1Cl (stereo not drawn) [Compound 12, 4-[(E)-2-(2-chlorophenyl)ethenyl]-6-methyl-2-[4-(2-methylimidazo[4,5-c]pyridin-1-yl)phenyl]-1,4-dihydropyridin-3,5-dicarboxylate 3-ethylester 5-[3-(3pyridyl)-2-propynyl]ester], the “Effect of overcoming resistance T/V” value falls from 179% to 153%.

Going from CCOC(=O)C1=C(c2ccc(-n3c(C)nc4cnccc43)cc2)NC(C)=C(C(=O)OC(C)C#Cc2cccnc2)C1CCc1ccccc1 (stereo not drawn) [Compound 23, 6-Methyl-2-[4-(2-methylimidazo[4,5-c]pyridin-1-yl)phenyl]-4-(2-phenylethyl)-1,4-dihydropyridin-3,5-dicarboxylate 3-ethylester 5-[1-methyl-3-(3-pyridyl)-2-propynyl]ester] to CCCCCC1C(C(=O)OC(C)C#Cc2cccnc2)=C(C)NC(c2ccc(-n3c(C)nc4cnccc43)cc2)=C1C(=O)OCC (stereo not drawn) [Compound 22, 6-Methyl-2-[4-(2-methylimidazo[4,5-c]pyridin-1-yl)phenyl]-4-pentyl-1,4-dihydropyridin-3,5-dicarboxylate 3-ethylester 5-[1-methyl-3-(3-pyridyl)-2-propynyl]ester], the “Effect of overcoming resistance T/V” value falls from 166% to 154%.

Going from CCOC(=O)C1=C(c2ccc(-n3c(C)nc4cnccc43)cc2)NC(C)=C(C(=O)OCC#Cc2cccnc2)C1/C=C/c1ccccc1OC (stereo not drawn) [Compound 14, 4-[(E)-2-(2-Methoxyphenyl)ethenyl]-6-methyl-2-[4-(2-methylimidazo[4,5-c]pyridin-1-yl)phenyl]-1,4-dihydropyridin-3,5-dicarboxylate 3-ethylester 5-[3-(3-pyridyl)-2-propynyl]ester] to CCOC(=O)C1=C(c2ccc(-n3c(C)nc4cnccc43)cc2)NC(C)=C(C(=O)OCC#Cc2cccnc2)C1/C=C/c1ccco1 (stereo not drawn) [Compound 16, 4-[(E)-2-(2-Furyl)ethenyl]-6-methyl-2-[4-(2-methylimidazo[4,5c]pyridin-1-yl)phenyl]1,4-dihdropyridin-3,5-dicarboxylate 3-ethylester 5-[3-(3-pyridyl)-2-propynyl]ester], the “Effect of overcoming resistance T/V” value falls from 143% to 136%.

Compared with CCOC(=O)C1=C(c2ccc(-n3c(C)nc4cnccc43)cc2)NC(C)=C(C(=O)OCC#Cc2cncc3ccccc23)C1/C=C/c1ccccc1 (stereo not drawn) [Compound 20], CCOC(=O)C1=C(c2ccc(-n3c(C)nc4cnccc43)cc2)NC(C)=C(C(=O)OCC#Cc2cccnc2)C1C(C)c1ccccc1 (stereo not drawn) [Compound 7, 6-Methyl-4-(α-methylbenzyl)-2-[4-(2-methylimidazo[4,5-c]pyridin-1-yl)phenyl]-1,4-dihydropyridin-3,5-dicarboxylate 3-ethylester 5-[3-(3-pyridyl)-2-propynyl]ester] is higher in “Effect of overcoming resistance T/V” value: 134% for the first, 141% for the second.

Going from CCOC(=O)C1=C(c2ccc(-n3c(C)nc4cnccc43)cc2)NC(C)=C(C(=O)OCC#Cc2cccnc2)C1CCc1ccsc1 (stereo not drawn) [Compound 17, 6-Methyl-2-[4-(2-methylimidazo[4,5-c]pyridin-1-yl)phenyl]-4-[2-(3-thienyl)ethyl]-1,4-dihydropyridin-3,5-dicarboxylate 3-ethylester 5-[3-(3-pyridyl)2-propynyl]ester] to CCOC(=O)C1=C(c2ccc(-n3c(C)nc4cnccc43)cc2)NC(C)=C(C(=O)OCC#Cc2cccnc2)C1C (stereo not drawn) [Compound 1, 4,6-dimethyl-2-[4-(2-methylimidazo[4,5-c]pyridin-1-yl)phenyl]-1,4-dihydropyridin-3,5-dicarboxylic acid 3-ethylester 5-[3-(3-pyridyl)-2-propynyl]ester], the “Effect of overcoming resistance T/V” value rises from 141% to 143%.

In the case of CCOC(=O)C1=C(c2ccc(-n3c(C)nc4cnccc43)cc2)NC(C)=C(C(=O)OCC#Cc2cccnc2)C1C1CCCCC1 (stereo not drawn) [Compound 4, 4-Cyclohexyl-6-methyl-2-[4-(2-methylimidazo[4,5-c]pyridin-1-yl)phenyl]-1,4-dihydropyridin-3,5-dicarboxylate 3-ethylester 5-[3-(3-pyridyl)-2-propynyl]ester], the “Effect of overcoming resistance T/V” value is reported as 156%.
